Test results from publication PMC6602471.
The other results are listed elsewhere or left out. At the low end of the ranking, values are background and their order means little.

target: T1, ELK1 (UniProt P19419); assay: custom PBM; conditions: custom protein-binding microarray; buffer, salt, pH and temperature not stated; high values mean tight binding; double strand, one strand shown
T1 sequence: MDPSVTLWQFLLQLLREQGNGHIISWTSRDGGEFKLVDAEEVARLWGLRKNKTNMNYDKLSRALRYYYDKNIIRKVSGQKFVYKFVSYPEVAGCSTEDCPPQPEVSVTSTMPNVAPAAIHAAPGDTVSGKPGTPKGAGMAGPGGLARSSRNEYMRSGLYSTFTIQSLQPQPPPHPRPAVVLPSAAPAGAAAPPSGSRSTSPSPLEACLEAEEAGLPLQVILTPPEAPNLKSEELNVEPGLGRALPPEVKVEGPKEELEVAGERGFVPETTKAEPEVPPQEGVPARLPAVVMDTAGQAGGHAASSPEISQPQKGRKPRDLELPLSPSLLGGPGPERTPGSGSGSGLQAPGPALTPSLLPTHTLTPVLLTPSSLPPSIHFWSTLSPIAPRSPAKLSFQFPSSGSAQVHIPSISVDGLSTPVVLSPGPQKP

| Sequence | binding signal (log fluorescence intensity) |
| --- | --- |
| CAGCATCGGACTTCTTCCCTGAAGCAATTGATAACCGTCTTGATTCGCTTGACGCTGCTG | 8.84 |
| GATTAATTTTTGCCCTTATTCGCACGTGCCATAACAGTCTTGATTCGCTTGACGCTGCTG | 8.94 |
| TGTCGGGTAAGGGAATGTAGCTCACGTGAATGAAAAGTCTTGATTCGCTTGACGCTGCTG | 8.76 |
| GTGTATAGGATCCCATCCAACACACGTCTTAAAATGGTCTTGATTCGCTTGACGCTGCTG | 8.8 |
| GTGTATAGGATTCCATCCAACACACGTGTTAAAATGGTCTTGATTCGCTTGACGCTGCTG | 8.95 |
| CAGCATAGGACTTCTTCCCTGGAGCAATTGATAACCGTCTTGATTCGCTTGACGCTGCTG | 8.85 |
| CTGGGACTTGACCCAACTCTGCCACTTGGGTCGTTTGTCTTGATTCGCTTGACGCTGCTG | 8.73 |
| CACAATTTTTACTGTAATGTAGCACGCGTAACTCCTGTCTTGATTCGCTTGACGCTGCTG | 8.89 |
| TACTGACTTATATATGCGAATGCACATGAAGAGACCGTCTTGATTCGCTTGACGCTGCTG | 8.94 |
| GTGTATAGGATCCCATCCAACACACTTGTTAAAATGGTCTTGATTCGCTTGACGCTGCTG | 8.84 |
| TACTGACTTATATATGCGAATGCACATGAATCGACCGTCTTGATTCGCTTGACGCTGCTG | 8.81 |
| GATTAATTTCTGCCCTTATCCGCACGTGCCATAACAGTCTTGATTCGCTTGACGCTGCTG | 8.85 |
| GCGTATAGGATCCCATCCAACACACGTGTTAAAATGGTCTTGATTCGCTTGACGCTGCTG | 8.84 |
| CTGGGACTTGACCCAACTCTGCCACGTGGGTCATTTGTCTTGATTCGCTTGACGCTGCTG | 8.85 |
| CACAATTTTTACAGTAATGTAGCACCCGTAACTCCTGTCTTGATTCGCTTGACGCTGCTG | 8.81 |
| TACTGACTTAAATATGCGAATGCACATGAATAGACCGTCTTGATTCGCTTGACGCTGCTG | 8.82 |
| GTGGGACTTGACCCAACTCTGCCACGTGGGTCGTTTGTCTTGATTCGCTTGACGCTGCTG | 8.97 |
| GCTGCTGCGGTGCATACCCCACCGGATGTGACCACGGTCTTGATTCGCTTGACGCTGCTG | 10.3 |
| TAATGACTTATATATGCGAATGCACATGAATAGACCGTCTTGATTCGCTTGACGCTGCTG | 8.82 |
| GATTAATTTCTGCCCTTATTCGCACGTGCCAGAACAGTCTTGATTCGCTTGACGCTGCTG | 8.91 |
| CGGAAGTGTCGTAAACGTCGGATATCCGGTTCATCTGTCTTGATTCGCTTGACGCTGCTG | 12.6 |
| CAGCATAGGACTTCTTCCCTGACGCAATTGATAACCGTCTTGATTCGCTTGACGCTGCTG | 8.89 |
| GCTGCTGCGGTGCATACCCCACCGGATGTGAACCCGGTCTTGATTCGCTTGACGCTGCTG | 10.1 |
| TCCGGCTACCAGCTCCACCCACTTCAAGCCTTGTAGGTCTTGATTCGCTTGACGCTGCTG | 9.03 |
| CGAAAAAGGCCCAGGGTAACACCGGAAGTGGGCTTAGTCTTGATTCGCTTGACGCTGCTG | 11 |
| CTGGGACGTGACCCAACTCTGCCACGTGGGTCGTTTGTCTTGATTCGCTTGACGCTGCTG | 8.88 |

| Sequence | binding signal (log fluorescence intensity) |
| --- | --- |
| TAAAGGGAAGACGGTAGTGGTAGTTCCGGGTATTAAGTCTTGATTCGCTTGACGCTGCTG | 11.8 |
| CTGGGACTTGACCCAACACTGCCACGTGGGTCGTTTGTCTTGATTCGCTTGACGCTGCTG | 8.88 |
| GCCGGCTACCAGCTCCACCCACTTCAGGCCTTGTAGGTCTTGATTCGCTTGACGCTGCTG | 8.83 |
| CACAATTTTTACAGTAATGTAGCACACGTAACTCCTGTCTTGATTCGCTTGACGCTGCTG | 8.89 |
| GGAAAAAGGCCCAGGGCAACACCGGAAGTGGGCTTAGTCTTGATTCGCTTGACGCTGCTG | 10.9 |
| TCCGGCTACCAGCTCCACCCACTTCAGCCCTTGTAGGTCTTGATTCGCTTGACGCTGCTG | 8.94 |
| CACAATTTTTACAGTAATGTAGCACGCGTAACTCCCGTCTTGATTCGCTTGACGCTGCTG | 8.92 |
| TCCGGCTACCAGCTCCACCCACGTCAGGCCTTGTAGGTCTTGATTCGCTTGACGCTGCTG | 8.9 |
| CAGCATAGGACTTCTTACCTGAAGCAATTGATAACCGTCTTGATTCGCTTGACGCTGCTG | 8.85 |
| GGAAAAAGGCCCAGGGTAACACCGGGAGTGGGCTTAGTCTTGATTCGCTTGACGCTGCTG | 8.91 |
| TCCGGCTACCAGCTCCACCCACTCCAGGCCTTGTAGGTCTTGATTCGCTTGACGCTGCTG | 8.71 |
| GCTGCTGCGGTGCATACCCCACTGGATGTGACCCCGGTCTTGATTCGCTTGACGCTGCTG | 8.92 |
| GCTGCTGCGGTGCACACCCCACCGGATGTGACCCCGGTCTTGATTCGCTTGACGCTGCTG | 10.3 |
| CTGGGACTTGACCGAACTCTGCCACGTGGGTCGTTTGTCTTGATTCGCTTGACGCTGCTG | 8.85 |
| GGAAAAAGGCCCAGGGTAACTCCGGAAGTGGGCTTAGTCTTGATTCGCTTGACGCTGCTG | 10.4 |
| CGGAAGTGTCGTAAACGTCGGATGTCCGGTTCTTCTGTCTTGATTCGCTTGACGCTGCTG | 11.7 |
| GGAAAAAGGGCCAGGGTAACACCGGAAGTGGGCTTAGTCTTGATTCGCTTGACGCTGCTG | 10.8 |
| TCAAGGGAAGACGGTTGTGGTAGTTCCGGGTATTAAGTCTTGATTCGCTTGACGCTGCTG | 11.1 |
| GATTAATTTCTGCCCTTATTCGCACGTGCCATTACAGTCTTGATTCGCTTGACGCTGCTG | 9.01 |
| CCGGGACTTGACCCAACTCTGCCACGTGGGTCGTTTGTCTTGATTCGCTTGACGCTGCTG | 8.9 |
| GTGTATAGGATCTCATCCAACACACGTGTTAAAATGGTCTTGATTCGCTTGACGCTGCTG | 8.98 |
| TAAAGGGAAGACGGTTGTGGTAGTTCAGGGTATTAAGTCTTGATTCGCTTGACGCTGCTG | 8.96 |
| GATTAATTTCTGCCCTTATTCGCACGTGCCTTAACAGTCTTGATTCGCTTGACGCTGCTG | 8.92 |
| TATCGGGTAAGGGAATGTAGATCACGTGAATGAAAAGTCTTGATTCGCTTGACGCTGCTG | 8.89 |
| CAGCATAGGACTTCTTCCCTGAAGCAACTGATAACCGTCTTGATTCGCTTGACGCTGCTG | 8.89 |
| CATCATAGGACTTCTTCCCTGAAGCAATTGATAACCGTCTTGATTCGCTTGACGCTGCTG | 8.88 |
